PubChem BioAssay AID485344 (National Center for Advancing Translational Sciences (NCATS), 2010)
Out of some 340,000 compounds screened, about 6,900 (2%) were called active. No stated cut-off is given here; in the data, active means inhibition above about 30%; inactive means below that, where a call was filed. The entries are a selection whose mix differs from that of the whole data set. The source gives no active or inactive call for entries shown without one.
Further: 0% is about no effect.

Each compound was assayed against D(2) dopamine receptor (Homo sapiens) (UniProt P14416) (assay: HTS Assay for Allosteric Antagonists of the Human D2 Dopamine Receptor: Primary Screen for Antagonists). Details: HEK293 TREx D2 cells, calcium flux, dopamine EC80; at 10 µM; stronger effect = higher value.
Sequence of UniProt P14416 (P14416 whole entry, looked up): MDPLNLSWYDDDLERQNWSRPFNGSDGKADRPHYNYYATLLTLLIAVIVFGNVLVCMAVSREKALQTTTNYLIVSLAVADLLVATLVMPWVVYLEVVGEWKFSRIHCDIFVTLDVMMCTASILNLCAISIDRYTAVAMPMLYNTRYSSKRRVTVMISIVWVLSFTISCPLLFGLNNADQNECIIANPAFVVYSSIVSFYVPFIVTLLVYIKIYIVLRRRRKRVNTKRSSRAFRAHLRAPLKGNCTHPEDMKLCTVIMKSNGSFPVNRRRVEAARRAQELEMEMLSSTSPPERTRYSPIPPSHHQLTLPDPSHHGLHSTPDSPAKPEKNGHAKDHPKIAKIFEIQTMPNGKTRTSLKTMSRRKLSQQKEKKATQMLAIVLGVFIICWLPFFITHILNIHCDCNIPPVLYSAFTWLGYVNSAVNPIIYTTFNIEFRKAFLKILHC
Outline: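 Inhibition of EC80 dopamine-driven calcium flux, recorded kinetically, defines activity here; cells are a tetracycline-induced HEK293 T-REx line expressing force-coupled D2.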
In the case of CC(=O)Nc1ccc(OCC(O)CN2CCN(c3ccccc3Cl)CC2)cc1 (configuration not stated), the inhibition is reported as active: 76.3%. With CCOc1ccc(CCNC(=O)c2cc3c(=O)oc4ccc(C)cc4c3s2)cc1OCC the inhibition was 6.25%. For CC(C)(C)C(=O)Nc1cccc(-c2cn3cccnc3n2)c1, the inhibition was 13.6%. For COc1cccc(-n2c(=O)c3c(C)c(C)sc3n(CC(=O)NCc3ccc(C)cc3)c2=O)c1, the inhibition was -8.59%. With CC(=O)N1CCc2c(sc(NC(=O)CSc3ccccc3)c2-c2nc3ccccc3s2)C1 the inhibition was 24.3%. For Cc1cccc(CSc2ncc(Cl)c(C(=O)Nc3sc4c(c3C(N)=O)CCCC4)n2)c1, the inhibition was 6.02%. O=C(Cn1c(=O)nc(-c2ccccc2)c2ccccc21)Nc1cccc(C(F)(F)F)c1 was tested, and the inhibition was 19.2%. Compound COc1cccc(CNCCNC(=O)c2nonc2N)c1 has an inhibition of 12.8%. Cc1cccc(NS(=O)(=O)c2c(C)nc3sccn3c2=O)c1C showed an inhibition of -10.6%. Work on CCSc1nc2c([nH]c3ccccc32)c(=O)n1CC yielded an inhibition of -4.99%. In the case of O=C(NCc1ccccc1Cl)c1cc2c(s1)-c1ccc(Cl)cc1SC2, the inhibition is reported as 6%. Cc1ccc(C(=O)CSc2nc(-c3ccccc3)nc3c2CCCC3)cc1 showed an inhibition of 8.37%. Compound CCOc1ccccc1NC(=O)N1CC(CC)Oc2ccccc21 (configuration not stated) has an inhibition of 5.34%. For CCOC(=O)CSc1nc(-c2ccc(C)cc2C)cc(-c2ccccc2)c1C#N, the inhibition was -4.74%. For COc1ccc(OC)c(CNC(=O)c2ccc(Sc3ccc(C)cc3)c(N)c2)c1, the inhibition was 7.89%. For Cc1ccc(NC(=O)CN2C(=O)CCc3cc(S(=O)(=O)N4CCOCC4)ccc32)cc1F, the inhibition was 10.4%. CCc1ccc(-n2nc(C)c3c(C)cc(=O)n(Cc4nc(-c5ccccc5)oc4C)c32)cc1 was tested, and the inhibition was 8.39%. CCCc1nn2c(=O)cc(COC(=O)c3ccccc3NC(=O)COc3ccccc3F)nc2s1 gave an inhibition of -21.1%. COc1ccc(NC(=O)c2oc3ccc(S(=O)(=O)N4CCCCC4)cc3c2C)cc1 gave an inhibition of 3.79%. For CCOc1ccc(CNC(=O)C2Cc3ccccc3N2C(=O)CC)cc1OC (configuration not stated), the inhibition was 5.34%. Work on Cc1cccc(CNC(=O)CCn2c(=O)c3cccn3c3ccc(F)cc32)c1 yielded an inhibition of 1.68%. Cc1nc2c(C(=O)NCCCN(CC(C)C)CC(C)C)cnn2c(C)c1Cc1c(F)cccc1Cl showed an inhibition of 13.5%. CCCOC(=O)c1c(NC(=O)c2nc3ncccn3n2)sc(C(N)=O)c1C gave an inhibition of 0.632%. Cc1ccc(C(=O)Nc2cc3c(cc2C)n(C)c(=O)c(=O)n3C)cc1 was tested, and the inhibition was 6.31%. Compound CCOC(=O)c1c(-c2ccccc2)oc2ccc(NS(=O)(=O)c3cc(C)c(C)cc3C)cc12 has an inhibition of 2.68%. For CCOc1ccccc1CN1CCN(S(=O)(=O)c2ccccc2)CC1, the inhibition was -5.72%. Compound CC(=O)c1cccc(NC(=O)c2oc3c(c2C)-c2nn(Cc4ccc(Cl)cc4)cc2CC3)c1 has an inhibition of -14.9%. With O=C(CN1N=C(c2ccc(Cl)cc2)CCC1=O)NCCc1ccc(Cl)cc1 the inhibition was 13.2%. Work on COCc1nc2ccccc2n1CCOc1cccc(C)c1 yielded an inhibition of -5.1%. With COc1ccc(S(=O)(=O)N2CCCN(CC(=O)Nc3ccc(NC(C)=O)cc3)CC2)cc1 the inhibition was -3.97%. Cc1ccccc1NC(=O)c1ccc2c(c1)c(C)c(C)n2Cc1ccccc1 showed an inhibition of 4.96%. COc1ccccc1NC(=O)CSC1=Nc2ccccc2C2=NC(CC(=O)NCc3ccco3)C(=O)N12 (configuration not stated) showed an inhibition of 11.4%. Work on CCOc1ccc(N(CC)S(=O)(=O)c2cc(Br)cc3c2N(C(C)=O)C(C)C3)cc1 (configuration not stated) yielded an inhibition of -9.71%. COc1ccc(NC(=O)CSc2nc(-c3ccco3)cc(C(F)(F)F)n2)cc1OC was tested, and the inhibition was 1.3%. For Cc1ccccc1N1C(=O)CC(Nc2ccc3c(c2)OCO3)C1=O (configuration not stated), the inhibition was active: 31.4%. Work on CN(Cc1ccccc1)S(=O)(=O)c1nnc(NC(=O)c2cccc(Cl)c2)s1 yielded an inhibition of 14.6%. For CCCCN(C)CCCNC(=O)Cn1ncc2c3ccccc3n(Cc3ccccc3)c2c1=O, the inhibition was 2.03%. For Cc1cccc(NC(=O)CSc2nccn2Cc2ccc(F)cc2)c1C, the inhibition was 1.27%. CC1CCCc2sc3nc(SCC(=O)c4ccc(Br)cc4)nc(N)c3c21 (configuration not stated) showed an inhibition of 0.101%. For O=c1c2ccccc2[nH]c(=S)n1CCCN1CCC(Cc2ccccc2)CC1, the inhibition was active: 81.8%. In the case of COc1ccc(S(=O)(=O)c2cnc3ccc(Cl)cc3c2N2CCCCC2C)cc1 (configuration not stated), the inhibition is reported as 3.58%. With Cc1cc(C)cc(OCC(=O)Nc2c(C)ccc3nsnc23)c1 the inhibition was 6.27%. For Cc1ccccc1NC(=O)CSc1nc2nccnc2c(=O)n1CCc1c[nH]c2ccccc12, the inhibition was 8.07%. Compound COc1cccc(N2CC(NC(=O)c3ccc(S(=O)(=O)N4CCOCC4)cc3)CC2=O)c1 (configuration not stated) has an inhibition of 4.26%. O=C(NCCc1ccccc1)c1nc(-c2ccc(Cl)cc2)n2c1CCCCC2 was tested, and the inhibition was 10.1%. COc1ccc(CNc2nc3c(-c4ccccc4)nnn3c3ccccc23)cc1 gave an inhibition of -14.6%. O=C(NCc1ccc2c(c1)CCO2)Nc1cccc(C(F)(F)F)c1 was tested, and the inhibition was active: 39.8%. Cc1c(C(=O)Nc2nc(-c3ccc(F)cc3)ns2)oc2ccc(Cl)cc12 was tested, and the inhibition was 7.51%. Work on Cc1ccc(CCNC(=O)CS(=O)Cc2nc(-c3ccccc3Cl)oc2C)cc1 (configuration not stated) yielded an inhibition of 24%. For Cc1ccc2oc(C(=O)Nc3cccc(Cl)c3)cc(=O)c2c1, the inhibition was 5.12%. O=C(Cc1ccccc1)Nc1sc2c(c1C(=O)Nc1ccc(Br)cc1)CCC2 showed an inhibition of 2.45%. Work on COc1ccccc1C(=O)Nc1ccccc1OCc1cc(=O)n2ccccc2n1 yielded an inhibition of -6.88%. For COc1ccccc1Nc1sc(C(=O)c2ccc(C)cc2C)c(N)c1S(=O)(=O)c1ccccc1, the inhibition was -9.88%. Work on CCc1ccc(S(=O)(=O)c2nnn3c2nc(Nc2cc(OC)ccc2OC)c2sccc23)cc1 yielded an inhibition of -10.2%. For COc1ccccc1N1CCN(CCC(=O)Nc2ccc(F)cc2)CC1, the inhibition was active: 66.4%. In the case of O=S(=O)(NCCS(=O)(=O)N1CCN(c2ccccc2)CC1)c1ccc(Br)cc1, the inhibition is reported as 1.84%. With CCNc1nc(NCc2ccc(F)cc2)c2cnn(C)c2n1 the inhibition was 11.5%. O=C(c1cnn(-c2ccc(F)cc2)c1-n1cccc1)N1CCN(c2ccc(F)cc2)CC1 showed an inhibition of -3.72%. With CC1CCN(S(=O)(=O)c2ccc3c(c2)CCN3)CC1 the inhibition was 21.8%. CC1=C(C(=O)Nc2cccc(Cl)c2C)C2(CCCCCC2)OC1=O was tested, and the inhibition was -16%. CCCCN(C)C(=O)c1cn(C)c2ccc(S(=O)(=O)N3CCC(C)CC3)cc2c1=O was tested, and the inhibition was 2.32%. CCc1ccc(NC(=O)CSC2=Nc3ccccc3C3=NC(CCC(=O)NCc4ccccc4)C(=O)N23)cc1 (configuration not stated) was tested, and the inhibition was 0.768%. In the case of Cc1ccccc1NC(=O)Cn1cc(C(=O)c2cccs2)c2ccccc21, the inhibition is reported as 23.1%. Work on O=C(Cn1ccc2cc(S(=O)(=O)N3CCCCC3)ccc21)NCCc1ccccc1Cl yielded an inhibition of -3.46%. With COc1ccccc1NC(=O)Cn1c(=O)n(Cc2ccccc2)c(=O)c2c1c1cc(C)ccc1n2C the inhibition was 1.78%. CCCCC(=O)OC1=C(C(=O)c2ccccc2)N(CCC)S(=O)(=O)c2ccccc21 showed an inhibition of -10.8%. CC(NC(=O)CSc1n[nH]c(-c2ccccc2Cl)n1)c1nc2ccccc2[nH]1 (configuration not stated) showed an inhibition of 8.13%. CCOc1cc(C(=O)NCCc2sc(-c3ccc(F)cc3)nc2C)cc(OCC)c1OCC was tested, and the inhibition was 12.2%. With CNC(=O)CCCN1C(=O)c2cccnc2Sc2ccccc21 the inhibition was 2.41%. Work on Cc1nc2ccc(S(=O)(=O)N(CC(=O)Nc3ccc(F)cc3F)Cc3ccccc3)cc2s1 yielded an inhibition of -2.09%. Work on CCOc1ccc(NC(=O)c2ccc3[nH]c(C)c(C)c3c2)cc1 yielded an inhibition of 12.4%. Work on O=C(Cn1c(SCc2ccccc2F)nc2ccncc21)Nc1ccccc1C(F)(F)F yielded an inhibition of 4.48%. O=C(Cn1c(=O)c2cccn2c2cccnc21)NCc1cccc(F)c1 showed an inhibition of 7.62%. Cc1ccc(S(=O)(=O)Nc2cccc(-c3cn4cccc(C)c4n3)c2)c(C)c1 gave an inhibition of 12.4%. CCOc1ccc(NS(=O)(=O)c2cc3c(cc2Cl)NC(=O)CO3)cc1 gave an inhibition of 1.94%. Cc1cc(C)c(NC(=O)CCS(=O)(=O)c2cc3c(cc2Cl)NC(=O)CO3)c(C)c1 was tested, and the inhibition was -22.1%. CC(=O)Nc1ccc(NC(=O)CCCn2nc(C)c3sc4ccccc4c3c2=O)cc1 showed an inhibition of 17.6%. For COc1cc2c(cc1OC)C(COc1cccc(C(F)(F)F)c1)N(C(=O)c1ccc(S(=O)(=O)N3CCCC3)cc1)CC2 (configuration not stated), the inhibition was 18.4%. CCC(C)NC(=O)C1CCN(S(=O)(=O)c2ccc3c(c2)CCCN3C(C)=O)CC1 (configuration not stated) showed an inhibition of -1.49%. With CCn1cc(C(=O)N2CCN(c3ccc(C)cc3)C(C)C2)c(=O)c2cc(S(=O)(=O)N3CCCC3)ccc21 (configuration not stated) the inhibition was -4.51%. CCc1ccccc1NC(=O)C(=O)NCCCN1CCOCC1 gave an inhibition of 2.4%. In the case of CC(=O)c1cccc(NC(=O)c2nc(-c3ccccc3)n(-c3ccccc3)n2)c1, the inhibition is reported as 10.1%. O=C1CCCc2cc(S(=O)(=O)N3CCCC(C(=O)NCc4ccccc4)C3)ccc2N1 (configuration not stated) gave an inhibition of 15.2%. With Cc1cc(C)c(NC(=O)CN(C)S(=O)(=O)c2ccc3c(c2)CCC(=O)N3)c(C)c1 the inhibition was -0.805%. Compound COc1ccc(CNC(=O)c2cc3c(=O)n(Cc4ccco4)ccc3nc2C)cc1 has an inhibition of 5.08%. Work on COc1cccc(NC(=O)CCNS(=O)(=O)c2ccc3c(c2)oc(=O)n3C)c1 yielded an inhibition of -17.6%. With Cc1ccc(S(=O)(=O)N(C)C)cc1NC(=O)C1CCCN(C(=O)c2ccc(Cl)cc2)C1 (configuration not stated) the inhibition was active: 31.2%. Cc1cc(C)c2c(=O)n(CC(=O)NCCCN3CCN(c4ccccc4F)CC3)sc2n1 was tested, and the inhibition was active: 53.5%. COc1ccc(C2=NC(c3ccncc3)=Nc3ccc(OC)cc3N2)cc1 showed an inhibition of -6.64%. Compound COc1ccc(-c2noc(N3CCC(C(=O)N4CCN(c5cccc(C)c5C)CC4)CC3)n2)cc1 has an inhibition of 8.85%. In the case of COc1ccc(C2=C(C)C(=O)N(Cc3ccc(C(=O)NCc4cccc(C)c4)cc3)S2(=O)=O)cc1, the inhibition is reported as -12.8%. Work on CCOc1ccc(NC(=O)CCNS(=O)(=O)c2cccc3nonc23)cc1 yielded an inhibition of -14.8%. For COc1ccc(-c2noc(COc3cc(C)ccc3C)n2)cc1OC, the inhibition was -7.65%. Work on O=C(COc1ccc(F)cc1)Nc1ccc2nc(SCC(=O)N3CCOCC3)sc2c1 yielded an inhibition of -1.15%. Work on CC(C)c1ccc(N2C(=O)CSC23C(=O)N(C)c2ccccc23)cc1 (configuration not stated) yielded an inhibition of -0.0545%. O=C1[C@@H]2CSC(c3ccc(Cl)cc3)N2C(=O)N1c1ccccc1 (some centres not stated) was tested, and the inhibition was -1.86%. Compound CCCN(C(=O)c1cc2c(=O)[nH]c3ccc(C)cc3c2s1)c1ccc(CC)cc1 has an inhibition of -5.48%.
